Test results: PubChem BioAssay (NCI)
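Dose response: 5 concentrations. Exposure: 48 h. Format: 96-well plates. Endpoint: linear interpolation; highest concentration if not reached. GI50: concentration for 50% inhibition of growth. TGI denotes the concentration required for complete inhibition of growth.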

Tested on: NCI-H322M lung
Test: DTP human tumour cell line panel, 48 h

| Compound | GI50 | TGI |
| --- | --- | --- |
| COc1ccc(C(=O)Nc2ncc(Cc3ccccc3Cl)s2)cc1 | 1 µM | 41 µM |
| N/C(=N\c1nc2c(Cl)cc(Cl)cc2s1)C(Cl)(Cl)Cl | 3.09 µM | 12.8 µM |
| COc1ccc(-n2c(SCC(=O)Nc3ccc(-c4nc5ccccc5[nH]4)cc3)nc3ccccc3c2=O)cc1 | 17 µM | 58.8 µM |
| O=C1[C@H]2Cc3c([nH]c4ccccc34)[C@@H](c3ccc(Br)cc3)N2C(=O)CN1C1CCN(CC2CCCCC2)CC1 | 16.8 µM | 32.7 µM |
